Article PMC4133157
Results are given in words; binding and its absence hold for the method and conditions named. In cells and extracts the contact can be indirect. Some binding calls cover weakened binding; strength is not graded here. Where a sequence is shown, tags or fusion partners need not be part of it.

Amino acid sequences for entries named in this document (tags omitted). Residues count along the entry.
UniProt P34710, residues 22-612: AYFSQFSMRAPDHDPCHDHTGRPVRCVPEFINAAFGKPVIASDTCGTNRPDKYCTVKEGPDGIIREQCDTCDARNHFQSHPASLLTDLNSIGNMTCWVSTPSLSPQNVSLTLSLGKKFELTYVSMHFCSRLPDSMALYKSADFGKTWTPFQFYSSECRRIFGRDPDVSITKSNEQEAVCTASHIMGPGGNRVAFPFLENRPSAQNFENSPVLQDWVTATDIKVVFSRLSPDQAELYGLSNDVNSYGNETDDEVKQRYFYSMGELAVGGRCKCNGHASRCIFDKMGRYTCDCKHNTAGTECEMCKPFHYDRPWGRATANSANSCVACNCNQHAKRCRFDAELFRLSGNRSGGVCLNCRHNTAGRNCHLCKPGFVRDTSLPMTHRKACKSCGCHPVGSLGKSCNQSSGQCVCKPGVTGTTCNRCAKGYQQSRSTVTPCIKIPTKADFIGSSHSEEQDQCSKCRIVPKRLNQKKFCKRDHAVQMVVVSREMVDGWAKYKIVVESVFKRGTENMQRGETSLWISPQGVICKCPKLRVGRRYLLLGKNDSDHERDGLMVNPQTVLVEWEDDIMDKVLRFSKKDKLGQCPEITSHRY

Columns and labels:
[1] = molecular target: T1, 3XFLAG::UNC-40 (HEK293T) (C. elegans) (UniProt G5EF96); experiment: co-IP; as a1, FLAG-tagged UNC-40 in HEK293 cells with co-expressed UNC-6, or UNC-6 and EVA-1; luciferase-tagged MADD-4 in the immunoprecipitate
T1 sequence: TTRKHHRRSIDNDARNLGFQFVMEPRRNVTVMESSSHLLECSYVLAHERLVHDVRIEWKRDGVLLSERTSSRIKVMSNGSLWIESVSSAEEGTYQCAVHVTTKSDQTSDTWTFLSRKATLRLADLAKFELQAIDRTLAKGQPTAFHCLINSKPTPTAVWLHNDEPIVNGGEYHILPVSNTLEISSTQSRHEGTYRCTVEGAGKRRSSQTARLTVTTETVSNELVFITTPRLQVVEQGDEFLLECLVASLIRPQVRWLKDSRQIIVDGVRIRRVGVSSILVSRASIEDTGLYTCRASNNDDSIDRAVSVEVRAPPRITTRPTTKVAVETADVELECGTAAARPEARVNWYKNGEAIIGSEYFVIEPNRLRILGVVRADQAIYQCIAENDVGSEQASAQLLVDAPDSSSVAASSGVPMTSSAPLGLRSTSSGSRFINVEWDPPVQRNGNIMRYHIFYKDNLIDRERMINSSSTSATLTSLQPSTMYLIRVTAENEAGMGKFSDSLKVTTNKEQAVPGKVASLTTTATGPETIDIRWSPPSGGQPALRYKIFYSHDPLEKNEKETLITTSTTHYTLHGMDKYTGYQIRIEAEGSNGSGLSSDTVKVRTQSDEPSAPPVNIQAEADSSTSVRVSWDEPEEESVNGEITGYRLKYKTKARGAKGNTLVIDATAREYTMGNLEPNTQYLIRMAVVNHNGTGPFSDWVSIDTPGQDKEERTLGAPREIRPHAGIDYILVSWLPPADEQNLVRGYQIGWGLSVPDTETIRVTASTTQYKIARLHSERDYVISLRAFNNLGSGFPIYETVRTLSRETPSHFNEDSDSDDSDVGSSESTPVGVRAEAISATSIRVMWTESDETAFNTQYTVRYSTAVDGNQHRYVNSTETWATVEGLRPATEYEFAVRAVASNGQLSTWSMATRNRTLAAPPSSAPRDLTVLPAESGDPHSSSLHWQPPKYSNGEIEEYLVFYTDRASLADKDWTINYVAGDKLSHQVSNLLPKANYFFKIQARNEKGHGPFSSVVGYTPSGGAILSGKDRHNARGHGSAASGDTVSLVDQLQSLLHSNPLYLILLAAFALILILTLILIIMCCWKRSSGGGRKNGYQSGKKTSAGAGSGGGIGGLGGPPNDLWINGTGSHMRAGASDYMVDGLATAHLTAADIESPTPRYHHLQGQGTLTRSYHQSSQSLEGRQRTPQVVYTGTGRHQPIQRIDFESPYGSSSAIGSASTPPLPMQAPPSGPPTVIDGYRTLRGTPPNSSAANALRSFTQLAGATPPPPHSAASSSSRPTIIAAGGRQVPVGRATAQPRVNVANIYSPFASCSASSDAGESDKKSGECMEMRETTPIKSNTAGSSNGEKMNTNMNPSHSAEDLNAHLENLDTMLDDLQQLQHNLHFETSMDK

[2] = molecular target: T2, EVA-1::MYC::3XFLAG::CFP (C. elegans muscle) (C. elegans) (UniProt Q9XU98); experiment: co-IP; lysate of transgenic worms with tagged proteins expressed in muscles (25 mM Tris pH 7.4, 100 mM NaCl, 1 mM EDTA, 0.25% NP40); anti-FLAG M2 agarose, 3 hrs at 4°C, western blot with anti-GFP
T2 sequence: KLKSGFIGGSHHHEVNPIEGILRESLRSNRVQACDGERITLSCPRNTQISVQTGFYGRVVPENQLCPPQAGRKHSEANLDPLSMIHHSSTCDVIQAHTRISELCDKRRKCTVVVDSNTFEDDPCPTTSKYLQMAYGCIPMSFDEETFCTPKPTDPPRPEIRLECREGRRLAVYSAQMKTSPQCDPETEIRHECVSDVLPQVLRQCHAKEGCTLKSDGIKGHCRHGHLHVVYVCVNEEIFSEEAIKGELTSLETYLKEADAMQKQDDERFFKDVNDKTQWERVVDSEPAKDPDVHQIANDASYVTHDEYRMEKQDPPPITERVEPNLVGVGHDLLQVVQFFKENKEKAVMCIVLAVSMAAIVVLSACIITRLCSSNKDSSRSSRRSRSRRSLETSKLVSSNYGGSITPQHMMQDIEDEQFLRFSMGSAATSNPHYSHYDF

[3] = molecular target: T3, UNC-40::MYC::3XFLAG::YFP (C. elegans muscle) (C. elegans) (UniProt G5EF96); experiment: as above
T3 sequence: T1 sequence

For “UNC-6 (co-expressed in HEK293 cells) (from UniProt P34710 22-612) (ligand)”, the binding [1] was “binds”.

B1: UNC-40::YFP (C. elegans muscle) (receptor, UniProt G5EF96 23-1415)
chain: T1 sequence
In the case of B1, the binding [2] is reported as “binds”.

B2: PAT-2::CFP (C. elegans muscle) (receptor, UniProt P34446 26-1226)
chain: FNIDTKNVVVHHMAGNYFGYSLDFYHEQKGMPVLVVGAPEAESNNPNLAGIRRPGAVYACSVNRATCREVHVDKMKGNLKKLNGSHLVPIEEKSHQFFGATVRSNDKHDKIVVCAPKYTYFYSKFEVIEPVGTCFYAENGFDNAEEFSSCKQEPARHGRHRLGYGQCGFSAAVPGKKNQNRVFIGAPGVWYWQGAMFSQNIKNQTDRPNTEYGSKEYDHDMMGYSTATGDFDGDGIDDIVAGVPRGNDLHGKLVLYTSKLKMMINLTDEVSTQHGQYCGGSVAVADVNKDGRDDIIMGCPFYTDYGSVKDAKTQERKPQYDVGKVIVMLQTAPGVFGKQIAVVGDDQWGRFGHAVAAAGDLNLDGYNDVIVGAPYAGKNKQGAVYVIHGSKDGVRELPTQKIEGANIGHGNIKSFGFSLTGNEDVDGNGMPDIAVGAWKSGNAAVLLTKPVVTVTGQTEPESALISVEDKNCDVDGKLGKQACKHINTCFKYEGKGDTPNDLEFDLRFNLDDHSPEPRAYFLQKDVKSDRSIKVAQGSKTRDHPSSIEQRVRLEKGRQKCFRHRFFASSTMKDKLSPIHWSVNYTYVESKTGKLRGDKLEPAIDTTVPLSFQNKINIANNCGKDDLCVPDLKVTAVADREKFLLGTQDNTMLINVTVQNGGEDSYETKLYFDVPQGFEYGGIESVGGDGSKSAPACSPTSDEPDSDGKWTFACDLGNPLPANKVVSSVVRVTASSDKPPLAPISINAHVNSSNDEEAHTVADNKVTFTIPVDFKNQLSLNGRSNPEQVDFSMTNKTRVDAFDDNEIGPVVSHLYQISNRGPSEVDSATLDIFWPSFSTEGGHLLYIITEPVVNPPNKGRCRVKQLQNVNPLNLRITNEHVPTEPPVAKTPNEYSREEDDESYEDETTTQSQSTRHQSTQHQTHHQSGPVHVYEKDEEKIRQNTGNWQYVEDKKKKGDYEYIPDDQEYDGDDFEEEDDEDFDRAGSKRVKRNPTPKKKKKGGEHRGEPRSDKARFSDLREAVKLSKEAGGVVDYKGPLSRASVDCNSLRCTHIECDIYDLKEDEFVLVEIFSRLYTNTLVDEKNPGGDISSLALARVTSTKYNLPHKPTLITAVSTNMNAIASEEGRDLPWWLYLLAILIGLAILILLILLLWRCGFFKRNRPPTEHAELRADRQPNAQYADSQSRYTSQDQYNQGRHGQML
B2 was tested, and the binding [3] was “no binding” and the binding [2] was “no binding”.
